From the supplement of paper PMC10126150
Values marked as one replicate rest on one cluster of the flow cell; about a third of the high ones do not repeat.

Test system: ATP
Assay: switch fluorescence ratio, 500 uM ATP over buffer (Cy3 cluster intensity, sum of 5 cycles each) (fold (ratio)); higher = stronger signal-on switching upon ATP binding; sequences stand for … in TCGTCGGCAGCGTCAGATGTGTATAAGAGACAGTTTTTTTTTTTTTTTTTTTTTTTTT…TC
Details: aptamer strand: ATP DNA aptamer (quencher-CACCTGGGGGAGTATTGCGGAGGAAGG + anchor), 100 nM annealed; ATP concentration: 500 uM; one replicate
Method in brief: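 For every switch-domain sequence, the fluorescence ratio is the mean of per-cluster values, each being summed target-cycle Cy3 intensity over summed buffer-cycle Cy3 intensity. Clusters outside 100-1000 RFU were excluded. On a modified Illumina MiSeq flow-cell, the Cy3-labelled switching-strand clusters were annealed to 100 nM quencher-labelled ATP aptamer, imaged in selection buffer and then after 15 min with 500 uM ATP at 22 °C. Five such cycles were run, with NaOH stripping and re-annealing between them.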
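Further: ATP exposure 15 min at 22 °C before imaging.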

Sequence	switch fluorescence ratio
CATCTCTGAC	1.11
TGTTTCGTG	0.957
TGCTGGTCCG	0.959
GGCGATACGG	1.59
TATTGTTCAC	1.03
TCACGCACCT	1.85
ACTATGGCTC	0.978
GAGCCGTGAG	0.967
TCGAAATGTA	0.993
TAGCAGCTCC	2
TTCGGGCCCA	0.981
CAACACACCC	1.38
ACAATAATGT	0.946
ATAGGTGAGG	1.01
GCGTAGTCTT	1.01
CAAAATTCAG	1.02
TTCGTTCTAT	0.997
GGGAATACGG	0.957
TCTCCGAGGG	1.43
TGTTAATTTT	1.01
GGGCGCTAAC	1.1
GACCGGCTTT	1.03
CTCAACGAGT	0.985
TACTTCTG	1.06
TAGCTATTGG	1.03
TCCGAATCTT	0.984

Sequence	switch fluorescence ratio
TCGGATACT	1.08
TATGCCGTGC	1
TGGACCTGAT	1.04
GGTGGTCAAG	0.999
CTAGAATGTT	0.975
CAGTTTGACT	1.04
TACTTTAGT	1.02
ATTTATGAGT	1
TTTTAGAGAC	1.03
GTCATAGTTG	0.986
TAAAAGCCTC	1
AGAGCGCAAT	5.61
AAGCGCTGCT	1
CCACTCAGGT	1.47
CGGAAGGGG	0.969
TGGGTTATA	0.946
ACATGCACGT	1.38
CCTAAATCCG	1.9
GACGGCAGTC	1.01
CGGGAGCTAA	1.17
CCTAAGTAGA	1.05
GGGTCGAGGC	1.05
ACCTCAGCGG	1.4
CGCCTCGGTT	0.962
ACGCCATTTA	1.17
AAGTGCACTT	0.975

Sequence	switch fluorescence ratio
TGAGATGTGC	0.983
GGCCGCGGAG	1.02
AGCCGGGTTG	1.04
CACTATTTTT	0.986
ACGGACAGCA	1.19
TAACCCTACC	1.37
GACGTCGTAA	1.08
ATTTGCGAAG	0.996
AGTAACTCG	0.966
GCCTGATTGG	0.978
GATACAGTGG	1
CGTAGTCGTG	0.961
TAGCTTTTGC	0.989
CGCCCAATTG	1.51
CCAACTGTTA	1.03
CCTTGGGCAT	1.67
GATTACCTTT	1.02
GTTGGTACGC	1
TATTGAGTCA	0.969
AGCGACCACC	1.26
TTCGGGGTG	0.963
AACCTGTGTC	1.05
CCCCTGTCGA	1.07
ACGTTTAAGG	1.01
CTCAATCTGC	1.1
GAGCATTGTG	0.965

Sequence	switch fluorescence ratio
CGGCGCAGTC	1.9
GGATGGGCTT	1.01
TCGGTATGAT	1.17
GGGGTGTGAT	1.03
TTAGTGATAA	1.03
ACAATTAATC	1.04
TCTGAAAGGA	0.973
CTGTTTTCTG	0.981
CGGACCTCAT	1.04
CCTAGGTAAG	1.03
ACGATCTAAC	1.09
AGAGATGCTA	1.04
CGGTCGTGCA	0.99
TTAAATGTAG	1
TGCTACTACG	1.01
GTTAATTGAA	1.03
ACAGTCTCGC	1.08
CCACTCTTCT	0.955
CATTGATGAC	1
CACGTCTGG	1.02
TTTGTGGGCA	0.986
GGTCG	1.02
AGTTAAGGCA	1.02
TAGTGAAGTG	0.904
CACTGATACT	1.16
TCAGTTGCGC	1.04

Sequence	switch fluorescence ratio
TGGGTATGCG	1.05
CGATCTGCAT	1.59
TAATATCCGT	0.934
TGGCAAGGTC	1.02
GACAGAAAGG	0.995
TCCGGCTTCA	1.04
CCTTTGGTAC	2.33
ATCAAATGCA	1
GTAAGGGAGC	0.966
TAAGGGCTAC	1.09
AATTCGGTAT	1.06
TCGTGACTGG	0.993
ACAGCTGCAT	0.946
ACGAGCACA	2.56
AAAAGTCGCA	1.03
CAAAGACTGA	0.972
GATTACAAGA	1.03
AAGGATTGGC	1.09
TATAGTGTCA	1
AAGTTGCGAC	0.982
GACTATTCGG	1.01
GTATTGCACC	0.998
ACGTTGATAG	1.01
CATTAAGGAA	0.978
CGGAAAGGA	0.963
GAGCGCACTA	1.19

Sequence	switch fluorescence ratio
CGCGCCTTGA	0.994
TTATTTACCA	0.958
CAATAACGAT	1.01
GCACATATAT	1.1
CAATTTTTGT	1.02
GATAGGCAGT	1.15
GAGGAAGAGT	0.973
GCGCATTTAT	1.05
ACGGCCTAAG	1.02
GGAGTCATAT	1.12
AATTCGTAGG	0.956
GGGGGCACCA	1.03
CAAGCAAACC	1.91
ATTCAGCACC	1.04
TTTATTCATC	0.977
TGAGTTCAGT	1.02
GACTGATGAC	1.08
GGGCTAAGCG	1.04
AAGGGCGCGG	1
GCTCATGTTT	1.01
CCGCCAAATA	3.29
AACAGGGGTA	1.01
GCAAACCTAT	1.02
CTAAACTATG	0.966
CGGCAACGGC	1.07
GTATTAATAG	0.975

Sequence	switch fluorescence ratio
TATGGTCGGT	1.01
TTATGCATAT	1.03
ACAGGGATAG	0.999
TGGACATA	1.05
TTGTGGCCCC	1.02
ATTGGATATG	0.983
GTTCAAGGAC	1.02
GAATCCTGGT	0.963
AAGTACCGGC	1.03
TGTTCTCCCA	0.945
TGCAGTGGGC	1.04
GCCGAAAAGT	0.984
CCTAGAACTC	1.06
TTTTTGCAGG	1.03
TAAGTTTTAC	1.01
TACGAAGGCG	0.983
ATGCCCTTT	0.985
TCGTGATCC	1.01
CGCTCTTTTT	1.01
AAGATGGCAA	0.996
ACGCATTAAT	1.19
ACACCCTTT	1.16
TACATTGTT	1.02
ATTAAGCG	1.03
CCGGGGAAAG	1.03
TCGAACAATT	1.04

Sequence	switch fluorescence ratio
TCGAATCTAG	1.04
TCTGTACTCG	1
AAAGGGACCC	0.975
ATGTGAGGTG	1.02
GACCTCATCG	1.02
AGATCTGGCG	1.03
ACCTGCCTCA	2.86
AGTATGTCAT	0.983
ATGCATTCAA	0.994
CGCCCCATCT	1.02
AGCTGAATAT	0.984
TCTAAGAGTG	1
CTGTTTATCC	1.02
TGCGCTAATT	1.06
CATGAGGGGT	0.989
ATCGGGCTAC	1.16
GAAGGACTGC	0.958
TGGGGTATT	1.03
TGTTGATCGT	0.954
